Over roughly 33,000 sequences, “E-score (-0.5 to 0.5)” has its median near -0.012; the highest 2% begin near 0.29. The list shows a part of the results.
Target: T1, Ybr033w (UniProt P38073)
T1 sequence: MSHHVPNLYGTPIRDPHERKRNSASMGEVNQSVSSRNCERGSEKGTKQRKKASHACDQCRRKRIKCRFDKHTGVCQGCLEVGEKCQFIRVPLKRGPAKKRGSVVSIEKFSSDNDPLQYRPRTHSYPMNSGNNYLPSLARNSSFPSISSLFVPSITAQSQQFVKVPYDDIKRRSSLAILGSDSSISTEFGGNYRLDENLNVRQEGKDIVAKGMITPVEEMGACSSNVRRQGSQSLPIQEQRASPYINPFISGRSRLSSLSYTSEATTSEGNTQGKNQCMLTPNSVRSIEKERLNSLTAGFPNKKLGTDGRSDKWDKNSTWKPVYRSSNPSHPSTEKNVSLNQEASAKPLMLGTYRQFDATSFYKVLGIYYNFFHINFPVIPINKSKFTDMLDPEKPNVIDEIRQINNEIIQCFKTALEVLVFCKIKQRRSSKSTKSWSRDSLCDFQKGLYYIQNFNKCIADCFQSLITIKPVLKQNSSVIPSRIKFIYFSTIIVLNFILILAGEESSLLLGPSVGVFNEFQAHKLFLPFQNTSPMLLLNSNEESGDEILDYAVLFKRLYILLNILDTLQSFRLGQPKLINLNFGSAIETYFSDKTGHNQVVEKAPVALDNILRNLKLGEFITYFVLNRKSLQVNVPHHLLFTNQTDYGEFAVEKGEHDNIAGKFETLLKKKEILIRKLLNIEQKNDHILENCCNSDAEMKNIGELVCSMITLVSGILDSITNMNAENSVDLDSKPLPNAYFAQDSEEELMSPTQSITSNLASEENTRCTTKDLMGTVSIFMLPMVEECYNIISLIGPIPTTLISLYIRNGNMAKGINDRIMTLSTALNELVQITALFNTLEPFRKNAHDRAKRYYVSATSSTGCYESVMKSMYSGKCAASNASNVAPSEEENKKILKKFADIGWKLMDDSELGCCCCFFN
Test: PBM E-score (8-mer binding enrichment) (E-score (-0.5 to 0.5)); higher = stronger / more preferred TF binding; most listed sequences are background and not binding sites
Conditions: protein concentration: 200 nM; construct: GST-full length
Outline: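 For each ungapped eight-base word taken together with its reverse complement, the Universal PBM Analysis Suite assigned an E-score. Binding data came from GST-tagged yeast transcription factors, applied at about 100-200 nM, on universal all-10-mer Agilent arrays made double-stranded by primer extension. Fluorescent anti-GST marked bound protein, and scans were normalised with masliner.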

In order of rising “PBM E-score” value:
1. GGGCCCAC  -0.36
2. CCCCCCGA  -0.331
3. CTGGCGCA  -0.311
4. GGCTCTCA  -0.309
5. AGCCCAGG  -0.308
6. GGCGGGAC  -0.302
7. CCTCTCTA  -0.294
8. CTAGGCTC  -0.293
9. CCCCCGCC  -0.288
10. CGTGGCCC  -0.278
11. CTAAGGAG  -0.275
12. CCTCCTCA  -0.274
13. CCCTGGCA  -0.268
14. CCCCAATC  -0.267
15. CCCCTTTC  -0.262
16. CCCCACAC  -0.255
17. GTCCTTTA  -0.252
18. GGGTCACA  -0.245
19. GAGCACGC  -0.245
20. GTGCCCAC  -0.238
21. AGGGTGGA  -0.234
22. GGGTACAC  -0.233
23. ACGGGATG  -0.221
24. GGGGTGCA  -0.219
25. CGACTGCG  -0.218
26. GGGCTCGA  -0.217
27. CCGTCCTC  -0.208
28. CGCGCAGC  -0.204
29. GGGAGCAA  -0.2
30. GCCACGGC  -0.199
31. CTTACGGC  -0.197
32. CCCTCCGA  -0.196
33. CCCCCGAA  -0.193
34. CGATGGGC  -0.192
35. CATACAGC  -0.188
36. AACACCCC  -0.187
37. CGTCGCTC  -0.181
38. AGCTGGCC  -0.179
39. AGGACCAC  -0.167
40. AAGGAGGG  -0.167
41. GCTTTGCA  -0.164
42. ACTGCCCT  -0.159
43. CCCGTATC  -0.158
44. GACGCTTA  -0.151
45. GTGCCTCA  -0.15
46. CCTATTCG  -0.149
47. GAGCCTCA  -0.143
48. GGCTTCGA  -0.138
49. ATGAGCTC  -0.138
50. ACGTCTCT  -0.135
51. CCTGGTCC  -0.133
52. GGTTGCAC  -0.131
53. CGGTACGC  -0.13
54. CACGCGGC  -0.127
55. TCCAGACA  -0.127
56. GGCACGGA  -0.126
57. GTCATGAC  -0.126
58. CTACCTCC  -0.125
59. CGGGAAGC  -0.123
60. GGAGCGAA  -0.122
61. AGACACGC  -0.119
62. CGCGGCGC  -0.117
63. ACCTCGTC  -0.116
64. TAGCCCTA  -0.112
65. GTCCTGCA  -0.112
66. GTAACTCA  -0.11
67. GGGCAGTA  -0.109
68. ACCGTCTA  -0.106
69. CGTCGCAC  -0.104
70. AGCCACTG  -0.103
71. ACCGCGTG  -0.0934
72. GCTCCAGC  -0.092
73. ATGCGGGC  -0.0914
74. ACCCTAGT  -0.0891
75. AACGCTAG  -0.088
76. GTCGCAAC  -0.0869
77. GCAACAGC  -0.0851
78. CGCGCCAG  -0.0849
79. CCCAAGCA  -0.0848
80. GAGACGCC  -0.0848
81. CAAGAGAC  -0.0846
82. CAAACGGA  -0.0796
83. AAGGTGAC  -0.0795
84. CGAGACAG  -0.0759
85. ACACTGCG  -0.0751
86. CACCCGCC  -0.0742
87. GACACAGC  -0.0695
88. ACTCTAGC  -0.069
89. ACGGCTAT  -0.0639
90. ACTGTCGC  -0.0615
91. CGGTGTTA  -0.0586
92. ACAACCGC  -0.0548
93. CTGTGTCC  -0.0543
94. ACGTTGTC  -0.0499
95. GTCCCGAA  -0.0465
96. TCGGCCGA  -0.046
97. CTCCATAC  -0.0423
98. GATAGGGC  -0.0405
99. AAGAGCGA  -0.0384
100. TCCAGGCA  -0.0372
101. TATCGGCA  -0.0356
102. GACTTGTA  -0.0325
103. CGACTATC  -0.0303
104. CTCTTGTA  -0.0293
105. AAAGTCGA  -0.0286
106. ACTCGGTA  -0.0263
107. CAGCATGA  -0.0259
108. CGTCCAAC  -0.0161
109. CCATCATC  -0.0153
110. CGATGTCA  -0.0145
111. CGGATAAG  -0.013
112. CCGTTGTC  -0.0101
113. GGTGGAAA  -0.00937
114. ATCGCTGA  -0.00895
115. ACCGCTCA  -0.00828
116. CACGGCGC  -0.00486
117. AAGGACAC  -0.00087
118. AAGACACA  0.00061
119. CAGTGTAG  0.00295
120. ATTTCGAC  0.00349
121. ACCGGGTA  0.00699
122. ATAACCTC  0.0117
123. CAAGTCTA  0.0126
124. GAAGCTCC  0.0146
125. AAAGGAAT  0.0153
126. GACGAGTA  0.0188
127. AATCTCGA  0.0193
128. ATGGCATC  0.0234
129. CTCTGTTC  0.0244
130. GGTGGTTA  0.025
131. AGAACGAG  0.0266
132. TAGGAGGA  0.0316
133. AACTGAGT  0.0318
134. AATGGTAT  0.0341
135. ACCCATAC  0.0342
136. AACACGCT  0.0343
137. CTTTTAGA  0.0355
138. ACATCAGT  0.036
139. CACAAAGA  0.0377
140. CAGTAGAC  0.0443
141. ATCCCCAA  0.0446
142. GCGCGTGA  0.0449
143. ACATAGAT  0.0459
144. AACCTTTA  0.046
145. ACCAAATG  0.0476
146. AAGATCAG  0.0479
147. AACACAGA  0.049
148. TAGGGCGA  0.0505
149. ACAGCTGT  0.0529
150. ACATTTCG  0.0576
151. CCTGTTCC  0.0589
152. AATCTGAC  0.0589
153. CTTTTCTC  0.0596
154. ATGTGATG  0.0682
155. GCGATTTA  0.0771
156. GCTCACAA  0.0799
157. ACGTAGAT  0.0816
158. TCACCGGA  0.0852
159. CATACTTA  0.0855
160. TATCCAAA  0.0863
161. GAAACTCA  0.0909
162. CATCCTAC  0.0917
163. AGAGTTAT  0.0933
164. CTGGTTGC  0.0954
165. GATTCCAC  0.0982
166. TCTGATAA  0.102
167. TAGTCACA  0.102
168. GGAACTAC  0.103
169. GCTAAAGA  0.106
170. AGTGATTA  0.108
171. TAGCTACA  0.112
172. GCAATCCA  0.122
173. ATGCACGC  0.126
174. GTATTTGA  0.127
175. ATGGTCCG  0.129
176. ATCTATTC  0.132
177. ATGAGTAG  0.136
178. CCAAGTAA  0.137
179. AAAAAGGC  0.137
180. ATCAAAGC  0.139
181. ATATATAT  0.141
182. CGTACAAC  0.144
183. AAAGTGCA  0.147
184. ATATCAAC  0.149
185. CTAGAAAA  0.154
186. AGATTTCA  0.156
187. TAGCGAAA  0.157
188. ACCTCAAA  0.159
189. GGTAAAAA  0.16
190. AAAGATTC  0.162
191. TTCAGCAA  0.162
192. ACTCGGAA  0.163
193. ATAGAAAT  0.164
194. AAAATTGG  0.164
195. TATTAAGA  0.168
196. CGGGAGTA  0.171
197. AAAACCAC  0.182
198. CGAAACAA  0.187
199. CAATACTC  0.193
200. ATAGTATG  0.196
201. GAATCTAA  0.199
202. CAAGAAAC  0.202
203. CTCTGATA  0.214
204. AATCATAC  0.215
205. AAACCGGA  0.217
206. ACTTACGA  0.219
207. AATAAACT  0.221
208. ACACTAGG  0.224
209. TAATGAGA  0.229
210. CTAACATA  0.237
211. AATTTGAT  0.242
212. ACCATATA  0.246
213. GAATTAAC  0.249
214. AGTCGTAA  0.283
215. GGAGAAAC  0.285
216. AAATATCT  0.295
217. GAAAAACA  0.295
218. GCCGGAAA  0.302
219. GGATAATA  0.349

Reference: the supplement of paper PMC3334620
